Measurements taken from PMC7482433.
These are yes or no findings as the source states them, for the method shown. For some of these results: Binding seen in cells or lysates may run through a third protein. Some binding calls cover weakened binding; strength is not graded here. For some of these results: Tags and fused reporters may be left off the sequences shown.

Sequences of proteins named here, by UniProt entry; tags and fusion partners are left off.
UniProt Q4ZIN3: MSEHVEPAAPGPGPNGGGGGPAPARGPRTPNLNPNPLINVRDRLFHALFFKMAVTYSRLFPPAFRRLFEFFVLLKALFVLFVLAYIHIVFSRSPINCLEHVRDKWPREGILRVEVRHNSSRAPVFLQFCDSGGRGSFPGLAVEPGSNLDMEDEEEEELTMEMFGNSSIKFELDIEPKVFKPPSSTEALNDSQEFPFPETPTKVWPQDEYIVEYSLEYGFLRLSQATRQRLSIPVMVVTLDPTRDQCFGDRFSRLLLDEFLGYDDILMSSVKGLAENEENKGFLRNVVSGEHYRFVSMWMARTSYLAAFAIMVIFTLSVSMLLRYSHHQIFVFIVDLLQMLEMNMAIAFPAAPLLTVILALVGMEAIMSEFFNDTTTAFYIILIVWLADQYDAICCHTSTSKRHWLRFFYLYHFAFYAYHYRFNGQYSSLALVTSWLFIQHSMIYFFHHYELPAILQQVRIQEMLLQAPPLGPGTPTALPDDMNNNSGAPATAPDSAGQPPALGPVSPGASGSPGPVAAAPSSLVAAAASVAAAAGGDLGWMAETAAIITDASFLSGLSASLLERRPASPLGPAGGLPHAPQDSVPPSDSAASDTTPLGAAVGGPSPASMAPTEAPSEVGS
UniProt Q99942: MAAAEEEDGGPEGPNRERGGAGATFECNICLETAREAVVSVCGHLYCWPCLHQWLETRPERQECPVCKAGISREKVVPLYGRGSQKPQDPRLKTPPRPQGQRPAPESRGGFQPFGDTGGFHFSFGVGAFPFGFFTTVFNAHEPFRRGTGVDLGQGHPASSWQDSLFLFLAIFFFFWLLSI
UniProt Q71RG4: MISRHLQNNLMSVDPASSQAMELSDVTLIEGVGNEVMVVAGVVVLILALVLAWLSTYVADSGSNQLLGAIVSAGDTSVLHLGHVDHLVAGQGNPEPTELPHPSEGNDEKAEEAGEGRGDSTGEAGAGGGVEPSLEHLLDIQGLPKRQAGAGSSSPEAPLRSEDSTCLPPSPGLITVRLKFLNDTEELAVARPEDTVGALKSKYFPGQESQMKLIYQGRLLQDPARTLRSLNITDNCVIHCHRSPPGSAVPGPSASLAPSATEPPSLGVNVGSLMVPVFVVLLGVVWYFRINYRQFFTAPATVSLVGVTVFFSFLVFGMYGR
UniProt Q86TM6: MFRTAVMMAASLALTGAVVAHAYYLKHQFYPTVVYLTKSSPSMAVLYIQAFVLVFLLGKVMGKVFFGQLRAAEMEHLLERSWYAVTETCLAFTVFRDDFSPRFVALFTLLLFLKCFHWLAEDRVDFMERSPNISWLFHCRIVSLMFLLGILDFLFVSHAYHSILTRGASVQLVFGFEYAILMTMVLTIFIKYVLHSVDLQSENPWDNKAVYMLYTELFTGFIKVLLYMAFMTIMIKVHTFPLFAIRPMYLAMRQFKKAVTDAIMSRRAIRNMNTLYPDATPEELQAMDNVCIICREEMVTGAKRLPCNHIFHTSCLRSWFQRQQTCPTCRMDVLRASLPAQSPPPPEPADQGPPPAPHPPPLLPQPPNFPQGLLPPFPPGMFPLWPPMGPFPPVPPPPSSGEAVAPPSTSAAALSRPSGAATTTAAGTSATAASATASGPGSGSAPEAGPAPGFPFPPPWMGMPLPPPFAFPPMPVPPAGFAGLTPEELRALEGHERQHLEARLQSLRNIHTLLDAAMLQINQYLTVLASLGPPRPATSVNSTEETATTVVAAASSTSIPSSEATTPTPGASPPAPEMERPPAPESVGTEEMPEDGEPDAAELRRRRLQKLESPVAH

T1: 3xFLAG-RNF185 (human) (UniProt Q96GF1)
T1 sequence: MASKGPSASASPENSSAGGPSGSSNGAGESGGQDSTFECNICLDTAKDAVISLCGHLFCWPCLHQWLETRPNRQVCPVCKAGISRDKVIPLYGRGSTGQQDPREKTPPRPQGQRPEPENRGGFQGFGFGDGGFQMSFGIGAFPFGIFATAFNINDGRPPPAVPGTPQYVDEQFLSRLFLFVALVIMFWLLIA


Key:
3xFLAG-RNF185 (human) = biological target: T1, 3xFLAG-RNF185 (human); test: co-IP; sequential immunoprecipitation from RNF185/MBRL double-KO cells co-transduced with FLAG-RNF185 and MBRL-SBP
[1] = biological target: endogenously tagged Membralin-mNeonGreen (human (endogenous in HeLa)) (UniProt Q4ZIN3); test: co-IP; mNG-Trap immunoprecipitation of MBRL-mNG from size exclusion fraction 9 of solubilised HeLa membranes, western blotting
[2] = biological target: endogenously tagged Membralin-mNeonGreen (human (endogenous in HeLa)) (UniProt Q4ZIN3); test: co-IP; mNG-Trap pull-down of endogenously tagged MBRL-mNG from HeLa lysate (1% DMNG), western blotting; HRD1-mNG as specificity control
[3] = biological target: MBRL tagged with streptavidin binding peptide (human) (UniProt Q4ZIN3); test: co-IP; sequential immunoprecipitation from RNF185/MBRL double-KO cells co-transduced with FLAG-RNF185 and MBRL-SBP
MBRL-3xFLAG (human) = MBRL-3xFLAG (human) (UniProt Q4ZIN3); test: co-IP; co-precipitation of MBRL with RNF185 and TMUBs in cells lacking TMUBs or RNF185 (Figure S4H; the bait was not shown)
[4] = biological target: endogenously tagged Membralin-mNeonGreen (human (endogenous in HeLa)) (UniProt Q4ZIN3); test: SEC; crude membranes of MBRL-mNG HeLa cells solubilised in 1% DDM + 0.1% CHS, Superose 6 10/300 GL in 50 mM Tris-HCl pH 7.4, 150 mM NaCl, 0.03% DDM, 0.003% CHS; fractions analysed by western blotting
[5] = biological target: endogenously tagged Membralin-mNeonGreen (human (endogenous in HeLa)) (UniProt Q4ZIN3); test: co-IP; mNG-Trap pull-down of endogenously tagged MBRL-mNG from HeLa lysate (1% DMNG), western blotting; HRD1-mNG as specificity control; remark: listed apart in the source

| Molecule | binding [1] | binding [2] | binding [5] | also measured |
| --- | --- | --- | --- | --- |
| MBRL tagged with streptavidin binding peptide (from UniProt Q4ZIN3 1-620) |  |  |  | binding (3xFLAG-RNF185 (human)): binds |
| RNF5 (from UniProt Q99942 1-180) | no binding | no binding |  |  |
| TMUB2 (from UniProt Q71RG4 1-321) | binds | binds |  | binding [3]: binds; binding (MBRL-3xFLAG (human)): binds; binding [4]: binds |
| endogenous HRD1 (from UniProt Q86TM6 1-617) | no binding |  |  |  |
| endogenously tagged Membralin-mNeonGreen (from UniProt Q4ZIN3 1-620) |  | binds |  |  |
| endogenous RNF185 (protein, UniProt Q96GF1 1-192) MASKGPSASASPENSSAGGPSGSSNGAGESGGQDSTFECNICLDTAKDAVISLCGHLFCWPCLHQWLETRPNRQVCPVCKAGISRDKVIPLYGRGSTGQQDPREKTPPRPQGQRPEPENRGGFQGFGFGDGGFQMSFGIGAFPFGIFATAFNINDGRPPPAVPGTPQYVDEQFLSRLFLFVALVIMFWLLIA | binds |  | binds | binding (MBRL-3xFLAG (human)): binds; binding [4]: binds |
| Erlin1 (protein, UniProt O75477 1-348) MNMTQARVLVAAVVGLVAVLLYASIHKIEEGHLAVYYRGGALLTSPSGPGYHIMLPFITTFRSVQTTLQTDEVKNVPCGTSGGVMIYIDRIEVVNMLAPYAVFDIVRNYTADYDKTLIFNKIHHELNQFCSAHTLQEVYIELFDQIDENLKQALQKDLNLMAPGLTIQAVRVTKPKIPEAIRRNFELMEAEKTKLLIAAQKQKVVEKEAETERKKAVIEAEKIAQVAKIRFQQKVMEKETEKRISEIEDAAFLAREKAKADAEYYAAHKYATSNKHKLTPEYLELKKYQAIASNSKIYFGSNIPNMFVDSSCALKYSDIRTGRESSLPSKEALEPSGENVIQNKESTG |  |  | binds |  |
| Erlin2 (protein, UniProt O94905 1-339) MAQLGAVVAVASSFFCASLFSAVHKIEEGHIGVYYRGGALLTSTSGPGFHLMLPFITSYKSVQTTLQTDEVKNVPCGTSGGVMIYFDRIEVVNFLVPNAVYDIVKNYTADYDKALIFNKIHHELNQFCSVHTLQEVYIELFDQIDENLKLALQQDLTSMAPGLVIQAVRVTKPNIPEAIRRNYELMESEKTKLLIAAQKQKVVEKEAETERKKALIEAEKVAQVAEITYGQKVMEKETEKKISEIEDAAFLAREKAKADAECYTAMKIAEANKLKLTPEYLQLMKYKAIASNSKIYFGKDIPNMFMDSAGSVSKQFEGLADKLSFGLEDEPLETATKEN |  |  | binds |  |
